Results from PubChem BioAssay AID504466 (National Center for Advancing Translational Sciences (NCATS), 2011).
About 4,200 (1.3%) of roughly 330,000 compounds were called active. The shares of active, inactive and inconclusive entries below differ from those in the screen. The call rests on the fitted dose curve; in most records, active means well fitted activation curve with a large enough effect; inconclusive means small, poorly fitted or top-dose-only effect; inactive means no such curve, though single readings can be large or run the other way. Potencies beside an inconclusive call are fits to weak or partial responses and may not hold up.

Test: qHTS screen for small molecules that induce genotoxicity in human embryonic kidney (HEK293T) cells expressing luciferase-tagged ELG1; further: nearly all actives have a fitted effect of over 60% in size; on activity change, positive = activation: % of control where 0% means no effect
Settings: HEK293T ELG1-luciferase reporter, luminescence, 16 h; series mostly up to 46 µM; activity change, positive = activation: at the top concentration
Outline: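 Genotoxicity was scored as increased ELG1-luciferase reporter signal, measured by ONE-Glo luminescence (30 min, room temperature). Compound or vehicle exposure of the HEK293T reporter cells lasted 16 hr at 37°C.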
Potency means the concentration at half of the fitted maximal effect; tags describe the fitted curve by direction and shape.

Row | Structure (SMILES) | Potency | activity change, positive = activation
1 | Clc1ccc(-c2nnc(N3CCOCC3)o2)cc1 | inconclusive: 10.3 µM [activator, partial curve, poor fit] | 
2 | CCCC(=O)Nc1ccc(NC(=O)c2ccco2)cn1 | inconclusive: 25.9 µM [activator, single point] | 
3 | Cc1cccc(-n2c(SCC(=O)Nc3ncc(Cl)cc3Cl)nc3ccccc32)c1 |  | inactive: -6.71%
4 | Cc1ccc2oc(C(=O)NCCCN3CCOCC3)c(C)c2c1 | active: 18.3 µM | 
5 | Cc1c(Cl)cccc1NC(=O)CC1Oc2ccccc2NC1=O (centres undefined) | inconclusive: 23.1 µM [activator, single point] | 
6 | COc1ccc(S(=O)(=O)N2CCC(C(=O)NCCCn3ccnc3)CC2)cc1C |  | inactive: -5.13%
7 | CC(C)(C)C1CCC(=O)N(CCSc2ccccc2)CC1 (centres undefined) | inconclusive: 3.66 µM [activator, full curve] | 
8 | CC1CC(C)CN(C(=O)c2ccc(C(=O)c3ccccc3)cc2)C1 (centres undefined) | inconclusive: 25.9 µM [activator, single point] | 
9 | CCCOc1ccc(/C=N/NC(=O)c2ccc(Cn3cc([N+](=O)[O-])cn3)o2)cc1 | inconclusive: 20.6 µM [activator, partial curve, poor fit] | 
10 | COCCNC(=O)c1cc(-c2ccc3c(c2)OCO3)on1 | inconclusive: 5.17 µM [activator, partial curve] | 
11 | O=C(Nc1ccccc1F)Nc1ccccc1Br | inconclusive: 18.3 µM [activator, partial curve, poor fit] | 
12 | CCCNC(=O)NNC(=O)c1cc(-c2ccc3c(c2)OCO3)nc2ccccc12 |  | inactive: 0.453%
13 | OC(C#CCN1CCCCC1)(c1ccccc1)c1ccccc1 | inconclusive: 23.1 µM [activator, partial curve, poor fit] | 
14 | COc1ccc(Nc2nc3ccccc3nc2NS(=O)(=O)c2cccs2)cc1 |  | inactive: -4.08%
15 | O=C(Nc1ccc(N2CCOCC2)c(Cl)c1)C1CCCCC1 | inconclusive: 11.2 µM [activator, partial curve] | 
16 | COCCCNC(=O)c1ccc(-c2csc(C)n2)cc1 | inconclusive: 2.06 µM [activator, full curve, poor fit] | 
17 | CN(CC(=O)NNC(=O)Cc1ccccc1F)S(=O)(=O)c1ccc(Cl)cc1 |  | inactive: 1.11%
18 | COc1ccc(C(=O)N[C@H](C(=O)Nc2nc3ccccc3[nH]2)C(C)C)cc1 | active: 11.6 µM | 
19 | CCC(CC)c1nnc(NC(=O)c2ccc3ccccc3n2)s1 | inconclusive: 2.31 µM [activator, single point] | 
20 | Cc1cc(NC(=O)c2cccc(Br)c2)n[nH]1 | inconclusive: 20.6 µM [activator, single point] | 
21 | Cc1[nH]c2ccccc2c1C(=O)/C=C\c1ccccc1Cl | inconclusive: 23.1 µM [activator, single point] | 
22 | CC(C)(C)c1ccc(C(=O)NCC(=O)N2CCC3(CC2)NCCc2[nH]cnc23)cc1 |  | inactive: 0.644% [at 9.26 µM]
23 | Cc1ccc2nc(-c3ccc(NC(=O)CSc4nccc(=O)[nH]4)cc3)sc2c1 | inconclusive: 29.1 µM [activator, single point] | 
24 | O=C(CCNS(=O)(=O)c1ccc(OC(F)(F)F)cc1)NCCc1c[nH]c2ccccc12 |  | inactive: -6.78%
25 | CC1CC(C)CN(C(=O)c2cc3ccccc3o2)C1 (centres undefined) | active: 23.1 µM | 

Row | Structure (SMILES) | Potency | activity change, positive = activation
26 | O=C(CCNC(=O)c1ccco1)Nc1nc2ccccc2s1 |  | inactive: 8.66%
27 | O=C(O)CC/C(=N\NC(=O)c1ccccc1)c1cccs1 |  | inactive: 9.87%
28 | c1ccc2c(c1)Cc1cc(CN3CCOCC3)ccc1-2 | inconclusive: 11.6 µM [activator, partial curve, poor fit] | 
29 | c1ccc(C2=Nn3c(nnc3-c3cccnc3)SC2)cc1 |  | inactive: -0.791%
30 | C/C(=N\NC(=O)c1csc(C)c1C)c1ccco1 | active: 6.51 µM | 
31 | CC(C)C[C@@H](CSc1ccc(Br)cc1)N1CCN(C)CCC1=O | inconclusive: 23.1 µM [activator, partial curve, poor fit] | 
32 | CCOc1cc(/C=N/NC(N)=O)cc(Br)c1OCc1ccccc1 |  | inactive: -0.0443%
33 | CCCn1nnc(NC(=O)c2ccc3c(c2)OCO3)n1 | inconclusive: 16.4 µM [activator, partial curve, poor fit] | 
34 | Fc1ccc(Nc2ccc3ccccc3n2)c(F)c1 | active: 0.82 µM | 
35 | COc1cccc(CNC(=O)CCS(=O)(=O)c2ccc3c(c2)oc(=O)n3C)c1 |  | inactive: -0.0507%
36 | Cc1cc(C(F)(F)F)c2c(N)c(C(=O)Nc3cc(C)on3)sc2n1 | inconclusive: 11.6 µM [activator, partial curve] | 
37 | O=C(c1cc2ccccc2oc1=O)N(c1ccc(Cl)cc1)C1C=CS(=O)(=O)C1 (centres undefined) |  | inactive: -0.271%
38 | CC(NS(=O)(=O)c1cccc(S(=O)(=O)c2ccccc2)c1)C(=O)O (centres undefined) |  | inactive: -3.44%
39 | CCc1cccc2sc(N3CCN(C(=O)c4ccc([N+](=O)[O-])o4)CC3)nc12 |  | inactive: -9.86%
40 | Cc1noc(C)c1COc1ccccc1C(=O)N1CCN(S(=O)(=O)c2ccccc2F)CC1 | active: 23.1 µM | 
41 | CCOC(=O)C1(Cc2ccccc2C(F)(F)F)CCN(C(=O)c2cc(C)n(C)n2)CC1 | inconclusive: 18.3 µM [activator, partial curve, poor fit] | 
42 | COc1ccc(/C=C/C(=O)Nc2cccnc2Cl)cc1 | active: 9.2 µM | 
43 | O=C(NNC(=O)c1ccccc1Br)c1cccc(Cl)c1 | inconclusive: 20.6 µM [activator, partial curve, poor fit] | 
44 | Cc1occc1C(=O)N/N=C/C(Br)=C/c1ccccc1 | inconclusive: 2.06 µM [activator, full curve] | 
45 | CC(=O)Cc1nsc(NC(=O)c2ccccc2)n1 | inconclusive: 29.1 µM [activator, partial curve, poor fit] | 
46 | Cc1scc(C(=O)N/N=C/c2ccc(Cl)s2)c1C | inconclusive: 7.31 µM [activator, partial curve] | 
47 | Cc1cc(/C=N/Nc2nc(N)ncc2[N+](=O)[O-])c(C)n1-c1cccc(C(F)(F)F)c1 | inconclusive: 2.59 µM [activator, full curve] | 
48 | COc1ccccc1NC(=O)NC(=O)c1ccccc1 | inconclusive: 3.66 µM [activator, full curve] | 
49 | Cc1noc(C)c1CSCC(=O)N(C)CC(=O)Nc1ccc(Cl)c(C(F)(F)F)c1 |  | inactive: -1.16%
50 | CC12CCC(=O)N1C(C(=O)Nc1nc3ccc(Cl)cc3s1)CS2 (centres undefined) |  | inactive: 6.45%

Row | Structure (SMILES) | Potency | activity change, positive = activation
51 | CCCCN1CC(O)=C(c2nc3ccccc3[nH]2)C1=N | inconclusive: 20.6 µM [activator, partial curve, poor fit] | 
52 | CCCC(=O)N1CCN(c2nc3ccc(Br)cc3s2)CC1 |  | inactive: 11.6%
53 | Cc1nnc(SCC(=O)Nc2c(Cl)cccc2Cl)n(N)c1=O |  | inactive: 1.12%
54 | Cc1ccnc(NS(=O)(=O)c2ccc(NC(=O)c3ccc(S(=O)(=O)N4CC(C)OC(C)C4)cc3)cc2)n1 (centres undefined) |  | inactive: 0.231%
55 | Cc1ccc(C)c(NC(=O)/C(C#N)=C/c2cn(CC(=O)NCc3ccco3)c3ccccc23)c1 | inconclusive: 8.2 µM [activator, partial curve, poor fit] | 
56 | CC1CCN(CCCNC(=O)c2coc3nc4ccccc4nc23)CC1 | inconclusive: 20.6 µM [activator, single point] | 
57 | Cc1c(NC(=O)C(C)OC(=O)C23CC4CC(CC(Br)(C4)C2)C3)c(=O)n(-c2ccccc2)n1C (centres undefined) |  | inactive: -3.6%
58 | Cc1[nH]c2ccccc2c1C(=O)C(=O)NC1CC1 | inconclusive: 32.6 µM [activator, partial curve, poor fit] | 
59 | CCOC(=O)N1CCN(C(=O)CNC(=O)c2nn(-c3ccc(OC)c(OC)c3)c(=O)c3ccccc23)CC1 |  | inactive: -11.4%
60 | CC(C)(C)n1ncc2c(=O)n(CC(=O)NCc3ccc(F)cc3)cnc21 | active: 4.11 µM | 
61 | N/C(=N\c1nc2ccccc2o1)NC(=O)c1cccc(Cl)c1 |  | inactive: 7.15%
62 | Cc1noc(C)c1C(=O)Nc1nc2ccc(S(C)(=O)=O)cc2s1 | inconclusive: 8.2 µM [activator, partial curve] | 
63 | Cc1cc(C(=O)Nc2ccc(Br)cc2)cs1 | active: 6.51 µM | 
64 | N=c1oc2cc(O)ccc2cc1C(=O)Nc1ccc(F)cc1 | inconclusive: 2.91 µM [activator, partial curve] | 
65 | Cc1ccc(NC(=S)N2CCC(c3ccc(C)cc3)C2)cc1 (centres undefined) | inconclusive: 23.1 µM [activator, partial curve, poor fit] | 
66 | Cc1cccc(Nc2n[nH]c(C)c2[N+](=O)[O-])c1 | active: 5.8 µM | 
67 | Cc1[nH]nc(SCC(=O)N2CCC(C)CC2)c1[N+](=O)[O-] | inconclusive: 18.4 µM [activator, partial curve, poor fit] | 
68 | Cc1cc2c(s1)c1cnn(CC(=O)NCCc3ccccc3)c(=O)c1n2C |  | inactive: -1.96%
69 | CCOC(=O)c1cccc(NC(=O)/C=C/c2ccc3c(c2)OCO3)c1 | inconclusive: 1.84 µM [activator, partial curve, poor fit] | 
70 | COc1ccc(Nc2c3ccccc3nc3ccccc23)cc1 | inconclusive: 32.6 µM [activator, partial curve, poor fit] | 
71 | Cc1ccc(Nc2nnc(-c3ccccc3N)o2)cc1C | inconclusive: 5.8 µM [activator, partial curve] | 
72 | CCC(C)Sc1ccc(-c2nc3ccc(C)cn3c2NC2CCCCC2)cc1 (centres undefined) | inconclusive: 29.1 µM [activator, single point] | 
73 | c1ccc(Nc2ccnc(Nc3ccccc3)n2)cc1 | inconclusive: 4.11 µM [activator, partial curve] | 
74 | NC(=O)c1ccccc1N/C=C/C(=O)c1ccc(Cl)cc1Cl | inconclusive: 2.31 µM [activator, partial curve] | 
